# Laboratory results: article PMC4336329 (PLoS ONE, 2015)
# Screen size: about 310,000 compounds; about 2,200 (0.71%) showed an effect of 50% or more. Effects have a minus sign here. The list shows a part of the results.
# Target: human ether-à-go-go-related gene (hERG) potassium channel (human, UniProt Q12809)
# Assay: primary screen, population patch clamp on CHO cells stably expressing hERG
# human ether-à-go-go-related gene (hERG) potassium channel, sequence (Q12809 whole entry, looked up): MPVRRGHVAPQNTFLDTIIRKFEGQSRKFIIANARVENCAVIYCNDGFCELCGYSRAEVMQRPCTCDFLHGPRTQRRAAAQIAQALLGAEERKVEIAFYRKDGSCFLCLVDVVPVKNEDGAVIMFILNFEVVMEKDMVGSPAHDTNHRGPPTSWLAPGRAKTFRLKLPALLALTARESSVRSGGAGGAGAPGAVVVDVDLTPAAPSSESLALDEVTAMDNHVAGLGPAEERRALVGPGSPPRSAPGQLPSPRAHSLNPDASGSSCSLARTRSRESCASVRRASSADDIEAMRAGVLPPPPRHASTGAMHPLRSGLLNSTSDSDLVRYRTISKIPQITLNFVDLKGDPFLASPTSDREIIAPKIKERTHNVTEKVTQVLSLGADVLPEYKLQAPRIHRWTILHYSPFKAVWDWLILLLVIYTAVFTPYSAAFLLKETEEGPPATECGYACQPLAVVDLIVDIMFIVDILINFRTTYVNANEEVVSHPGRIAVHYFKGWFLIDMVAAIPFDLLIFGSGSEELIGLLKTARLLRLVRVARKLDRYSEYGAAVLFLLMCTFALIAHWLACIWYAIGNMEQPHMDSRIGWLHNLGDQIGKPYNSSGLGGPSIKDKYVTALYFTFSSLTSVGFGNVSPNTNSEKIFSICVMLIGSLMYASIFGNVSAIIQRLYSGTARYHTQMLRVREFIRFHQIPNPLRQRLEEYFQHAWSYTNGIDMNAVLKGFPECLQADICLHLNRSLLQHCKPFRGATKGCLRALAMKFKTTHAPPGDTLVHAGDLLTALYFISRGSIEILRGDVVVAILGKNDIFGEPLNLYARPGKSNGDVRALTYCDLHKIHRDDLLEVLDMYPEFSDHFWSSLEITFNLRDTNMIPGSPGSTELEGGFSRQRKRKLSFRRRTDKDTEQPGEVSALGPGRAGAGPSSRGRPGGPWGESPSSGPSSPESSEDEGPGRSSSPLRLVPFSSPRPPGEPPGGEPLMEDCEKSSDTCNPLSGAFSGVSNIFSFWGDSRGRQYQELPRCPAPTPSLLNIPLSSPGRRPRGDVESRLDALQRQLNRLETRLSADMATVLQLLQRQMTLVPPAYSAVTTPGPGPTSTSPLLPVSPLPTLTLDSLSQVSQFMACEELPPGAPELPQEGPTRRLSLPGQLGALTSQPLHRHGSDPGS
row,Structure (SMILES),"hERG current change (%, negative = inhibition) at 1uM [%]"
1,CNC(=O)CSc1nc2ccccc2c(=O)n1CCc1ccccc1,14
2,C=CCC1(CC=C)CCCN1C(=O)C1CCC(=O)N(CCc2ccc(Cl)cc2)C1 (stereo not shown),-2.41
3,COC(=O)CNc1c(-c2ccccn2)nc2ccc(Br)cn12,10
4,CC1CN(C(=O)Nc2cccc(C(F)(F)F)c2)CC(C)O1 (stereo not shown),15.1
5,Cc1ccc(S(=O)(=O)NCc2ccccc2)cc1C(=O)NCC(C)(C)N1CCOCC1,10.7
6,CCCn1c(N)c(NCCN2CCOCC2)c(=O)n(CC(=O)NCc2ccccc2)c1=O,12.4
7,COc1ccc(OC)c(N=C2C(=O)Nc3ccccc32)c1,5.48
8,CCOC(=O)NC(NS(=O)(=O)c1ccccc1)(C(=O)OCC)C(F)(F)F (stereo not shown),5.62
9,CCOC(=O)CN1C(=O)N[C@@H](c2cccs2)C(C(C)=O)=C1C,16.1
10,CCN1CCN(C(=O)c2ccc3c(c2)S(=O)(=O)c2ccccc2C3=O)CC1.Cl,6.61
11,COc1ccc(CC(=O)NC(C)CCc2ccccc2)cc1OC (stereo not shown),2.11
12,COc1ccc(CN2CCN(C(=O)c3ccco3)CC2)c(OC)c1OC,15.4
13,Cc1ccccc1C(=O)NC1CCN(C(=O)NC2CCCCC2)CC1,19.8
14,CCN(CC)c1ccc(N=Cc2c(O)n(Cc3ccccc3)c(=O)[nH]c2=O)cc1 [14738079],14.2
15,CSc1ccc(CNc2nc3ccccc3n3cnnc23)cc1,9.37
16,Cc1nnc(SCC(=O)Nc2ccccc2)n1CCc1ccccc1,1.74
17,COc1cccc(-c2nc(CS(=O)(=O)CC(=O)NCCCOC(C)C)c(C)o2)c1,7.19
18,Cc1nn(Cc2ccccc2Cl)c(C)c1NC(=O)CSc1n[nH]c(C)c1[N+](=O)[O-],17.7
19,Cc1nc(NC(=O)c2cc3c(s2)CCCCC3)sc1C(=O)N(C)C,-6.86
20,COC(=O)c1ccc(-c2nc3cc(N)ccc3o2)cc1,2.82
21,Cc1occc1C(=O)NNC(=O)c1ccc(F)cc1,3.59
22,CC1(C)CC(NC(=O)C2CCCCC2C(=O)O)CC(C)(C)N1 (stereo not shown),13.1
23,CCn1c(C(=O)N2CCc3ccccc3C2)cc2sccc21,16
24,Cc1ccc(S(=O)(=O)c2nc(S(C)(=O)=O)sc2N2CCCCCC2)cc1,13.7
25,CCSc1nc(C2CC2)cc(-c2cccs2)c1C#N,1.73
